# Data reported in the supplement of paper PMC12217912.
# The list shows a part of the results. Sequences were assembled here from the parent chain. Values near 0.05 are background.
# B1: TEV protease; numbered along this chain (parent)
# chain: MGESLFKGPRDYNPISSSICHLTNESDGHTTSLYGIGFGPFIITNKHLFRRNNGTLVVQSLHGVFKVKDTTTLQQHLVDGRDMIIIRMPKDFPPFPQKLKFREPQREERICLVTTNFQTKSMSSMVSDTSCTFPSGDGIFWKHWIQTKDGQCGSPLVSTRDGFIVGIHSASNFTNTNNYFTSVPKNFMELLTNQEAQQWVSGWRLNADSVLWGGHKVFMVKPEEPFQPVKEATQL
# Variants of: B1
# Experiment: raw area under fraction-flipped curve 0-4 h after induction (AUC4h, not background-subtracted), DNA-recorder readout of cleavage of the substrate (dimensionless); higher = more cleavage of the substrate by the protease variant
# Conditions: temperature: 34 °C; time window: 0-4 h after rhamnose induction
# Method: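 In vivo DNA recorder in E. coli TOP10(DE3) ΔrhaA at 34 °C. Each TEVp single-site mutant (parent TEVp 0) is paired with a single-site variant of the 7-mer TEVs (canonical ENLYFQ|S). The substrate sits between flexible linkers in a Bxb1-sfGFP-TEVs-SsrA fusion, so cleavage stabilises Bxb1 and speeds flipping of a recombination array, read by NGS. The value is the raw area under the fraction-flipped curve over 0-4 h after rhamnose induction (AUC4h), with ≥20 reads per time point. It is not background-subtracted; inactive controls average about 0.047.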
# 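Also: Bxb1 expression induced with 0.2% (w/v) L-rhamnose at OD600 near 0.5, cultures sampled hourly, flipped fraction per protease–substrate barcode pair counted by paired-end Illumina sequencing.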
Variant,area with substrate ENLCFQS,area with substrate ENLDFQS,area with substrate ENLFFQS,area with substrate ENLMFQS,area with substrate ENLNFQS,area with substrate ENLPFQS,area with substrate ENLSFQS,area with substrate ENLTFQS,area with substrate ENLRFQS,area with substrate ENLEFQS
F92V,0.0762,0.0543,0.1,0.0762,0.0807,0.0711,0.0694,0.0593,,
N175S,0.0691,,0.0784,,0.0604,,,,0.0752,
L235T,0.082,0.0784,0.106,,0.0692,0.0144,0.0626,,0.0875,0.0747
K66H,0.0846,,,,0.0664,,0.0593,,,0.0629
K66W,0.0657,0.065,,,,,0.0597,,0.0666,
G150A,0.0562,0.059,0.0435,,,,,,,0.0643
T114L,0.0734,0.066,0.0917,,,0.0671,0.077,,0.0604,0.0679
S209K,0.059,0.0711,,0.0588,,0.0546,,,,0.0745
F173T,,0.0646,0.0719,,0.0753,0.0558,,,0.0778,0.0594
V57Q,0.0882,0.0569,0.111,,0.068,,,,,
P222T,0.0883,,0.0936,,,0.0687,0.0656,,0.117,0.0785
P222L,,0.054,,,,,,,,
Q59R,0.0895,0.0633,0.0889,0.0784,0.0609,,0.048,0.0677,0.0777,
P94N,0.0567,0.0665,0.0943,,0.0539,,0.0537,,,
R81P,,0.0721,0.0715,,,,,,,
C131I,0.0752,,,,,,0.0457,,0.0682,0.0664
L191Q,0.0291,0.0584,0.0611,,0.0687,0.0628,0.0669,,0.0285,0.0559
M88L,0.0649,0.0621,0.13,,0.0746,0.0689,0.0669,,0.0792,
K185N,0.0922,0.0818,0.0715,0.0872,0.0219,,0.0586,,0.0853,0.0651
K185V,0.0717,0.0705,0.0823,,,0.0506,0.0664,,0.0614,

Variant,area with substrate ENLCFQS,area with substrate ENLDFQS,area with substrate ENLFFQS,area with substrate ENLMFQS,area with substrate ENLNFQS,area with substrate ENLPFQS,area with substrate ENLSFQS,area with substrate ENLTFQS,area with substrate ENLRFQS,area with substrate ENLEFQS
G35V,0.0574,0.0399,0.0484,,0.0662,0.0432,,,0.0443,
T174C,0.0528,0.0495,,,,0.0567,,,0.0774,
P93C,0.0927,,0.0854,,0.0768,,0.0786,,,
P93D,0.0731,,,,0.059,0.0588,,,,
W199Q,0.0644,,,,,,0.0824,0.0514,0.0254,0.0782
L99V,0.0596,0.0655,0.0878,,0.0699,,0.068,,,
H76T,0.0721,0.0582,,,0.0559,0.0382,0.0774,,,0.0612
H76F,0.0707,0.0679,,,0.0499,0.0647,0.0676,,,
N206C,0.0774,0.0745,0.0935,0.0631,0.0646,0.0564,0.0524,,0.0684,0.0624
A196V,0.0395,,0.0711,,0.0627,,,,,
K100Q,0.0638,0.0638,0.0883,,0.0651,0.0619,0.0632,,,
D69F,0.0777,,,0.0559,,0.0572,0.0489,,,
N116W,0.0623,0.0447,,,0.0647,,0.0482,,,0.0538
F180S,0.0628,,0.0841,0.081,,0.0492,,,,0.0589
F180H,0.0584,,,,0.0537,,0.0552,,,
Q227D,0.062,,0.085,,,0.0593,,,0.0781,
F101S,0.0404,,,,0.0465,0.0482,0.0398,,,
G138W,0.0523,0.0653,0.0802,,,0.0564,0.0603,,,0.0517
G138P,0.0745,,0.0603,,0.0697,0.0269,0.0277,,,
G138Y,0.0545,,0.0554,0.0727,0.0407,0.0613,0.0634,,0.09,0.0645

# Same assay, conditions: temperature: 34 °C; time window: 0-4 h after rhamnose induction
Variant,area with substrate ENLHFQS,area with substrate ENLKFQS,area with substrate ENLLFQS,area with substrate ENLQFQS,area with substrate ENLVFQS,area with substrate ENLWFQS,area with substrate ENLIFQS,area with substrate ENLGFQS
L235T,0.0544,0.0643,0.0511,0.0631,0.0931,0.0655,,
K66H,0.0832,0.0791,0.0659,,,0.0747,0.106,
K66W,0.0345,0.0844,,,,,,
G150A,,0.0669,0.0605,,,,,
T114L,0.0923,,,0.0777,,,,0.0798
S209K,,0.0442,,,,,,
F173T,0.0855,0.0689,,,,,,
V57Q,,0.0796,,,,,,
P222T,0.0541,,,0.0666,,0.0569,,
P222L,0.07,0.101,0.0727,,0.0597,,,
Q59R,0.0709,,,0.0676,,0.0653,,0.0619
P94N,0.0709,,,0.0637,,,,
R81P,,,,,,0.0563,,
C131I,,,,,,,0.076,
L191Q,,0.0569,,,,,,
M88L,0.0851,,,0.0614,0.0785,,,
K185N,0.0731,0.0829,,0.0534,,0.0445,,
K185V,,0.0833,0.0762,,,,0.11,
G35V,,0.0597,0.0429,0.0201,,0.0408,,

Variant,area with substrate ENLHFQS,area with substrate ENLKFQS,area with substrate ENLLFQS,area with substrate ENLQFQS,area with substrate ENLVFQS,area with substrate ENLWFQS,area with substrate ENLIFQS,area with substrate ENLGFQS
T174C,,0.0608,0.0855,0.0756,,,0.0868,
P93C,0.0687,,,0.0581,,0.0599,,
P93D,0.0665,0.0916,0.0889,0.047,0.0685,0.0822,,
W199Q,,,,,0.0673,,,
L99V,0.0738,0.0708,0.0867,,0.0618,0.0728,0.0752,
H76T,0.0655,0.0602,0.0256,0.0577,0.0673,,,0.0553
H76F,0.0726,,0.0573,0.0748,0.0503,0.0723,,
N206C,,0.071,,0.0614,,,,
A196V,0.0616,,0.0869,0.0545,0.112,0.0645,0.081,
K100Q,,0.0787,0.0704,0.0631,0.0782,,,
D69F,0.0463,,,,,,,
N116W,,0.0742,0.0815,,0.0987,,,
F180S,,,,,0.0573,,0.0686,0.0591
F180H,,0.0948,,,0.0869,,,
Q227D,0.0723,0.0693,0.0712,,0.0729,,0.0761,
F101S,,0.0507,,,,0.0447,,
G138W,,0.0647,0.0597,,,,,
G138Y,0.0552,0.0635,,,,,,0.0597
